# Test results as given in the supplement of paper PMC8728848.
# Some of the results follow.
# B1: Tamarinin (protein)
# chain: CDDSARAGNIVVYWGQGGSDNSEGSLKEACKSGHYNMIVLQQLIVYDDGRDPDLNLGAHCSDCTKLEEQIKYCQNKDIKILLQIGQVVPTQEDVKDVTKNLSEYLLKNFFSGKSGPLGEVYLNGIDIASVPEGNNLKFDELVEALNDSSTERRIYLSASPLCVYPDYYLNKAIQTEKLDFLFVQFFYQNPCIYTEGNPENLFEAMKTWTKNVPESMIFMALPATPNLDGYIPPRVLNKEILPAVSEASNFAGVMIFDRYFDRFRKYSSKIK
# Tests used:
# Test in all cases: glycan array binding signal (z-score within array); higher = stronger binding
# Conditions in all cases: glycan notation: IUPAC condensed, linker removed
# [1] = molecular target: Gal(b1-4)GlcNAc(b1-3)Gal(b1-4)Glc
# How it was run: (§1)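 Glycan array data came from 3228 arrays in the Consortium for Functional Glycomics database, and only arrays with an available protein sequence were kept. Glycan names were put into IUPAC-condensed notation, and columns mapping to the same glycan were averaged. The binding signal is a within-array Z-score, averaged across arrays of one protein sequence run at different concentrations or buffers and across linkers. A negative Z-score can be read as non-binding.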
# [2] = molecular target: Gal(b1-4)GlcNAc(b1-3)Gal(b1-4)GlcNAc
# How it was run: as §1
# [3] = molecular target: Gal(b1-4)GlcNAc(b1-3)Gal(b1-4)GlcNAc(b1-2)Man(a1-3)[Gal(b1-4)GlcNAc(b1-3)Gal(b1-4)GlcNAc(b1-2)Man(a1-6)]Man(b1-4)GlcNAc(b1-4)GlcNAc
# How it was run: as §1
# [4] = molecular target: Gal(b1-4)GlcNAc(b1-3)Gal(b1-4)GlcNAc(b1-2)Man(a1-3)[Gal(b1-4)GlcNAc(b1-3)Gal(b1-4)GlcNAc(b1-2)Man(a1-6)]Man(b1-4)GlcNAc(b1-4)[Fuc(a1-6)]GlcNAc
# How it was run: as §1
# [5] = molecular target: Gal(b1-4)GlcNAc(b1-3)Gal(b1-4)GlcNAc(b1-2)[Gal(b1-4)GlcNAc(b1-3)Gal(b1-4)GlcNAc(b1-6)]Man(a1-6)[Gal(b1-4)GlcNAc(b1-3)Gal(b1-4)GlcNAc(b1-2)Man(a1-3)]Man(b1-4)GlcNAc(b1-4)GlcNAc
# How it was run: as §1
# [6] = molecular target: Gal(b1-4)GlcNAc(b1-3)Gal(b1-4)GlcNAc(b1-2)[Gal(b1-4)GlcNAc(b1-3)Gal(b1-4)GlcNAc(b1-6)]Man(a1-6)[Gal(b1-4)GlcNAc(b1-3)Gal(b1-4)GlcNAc(b1-2)Man(a1-3)]Man(b1-4)GlcNAc(b1-4)[Fuc(a1-6)]GlcNAc
# How it was run: as §1
# [7] = molecular target: Gal(b1-4)GlcNAc(b1-3)Gal(b1-4)GlcNAc(b1-3)Gal(b1-4)GlcNAc
# How it was run: as §1
# [8] = molecular target: Gal(b1-4)GlcNAc(b1-3)Gal(b1-4)GlcNAc(b1-3)Gal(b1-4)GlcNAc(b1-2)Man(a1-3)[Gal(b1-4)GlcNAc(b1-3)Gal(b1-4)GlcNAc(b1-3)Gal(b1-4)GlcNAc(b1-2)Man(a1-6)]Man(b1-4)GlcNAc(b1-4)GlcNAc
# How it was run: as §1
# [9] = molecular target: Gal(b1-4)GlcNAc(b1-3)Gal(b1-4)GlcNAc(b1-3)Gal(b1-4)GlcNAc(b1-2)Man(a1-3)[Gal(b1-4)GlcNAc(b1-3)Gal(b1-4)GlcNAc(b1-3)Gal(b1-4)GlcNAc(b1-2)Man(a1-6)]Man(b1-4)GlcNAc(b1-4)[Fuc(a1-6)]GlcNAc
# How it was run: as §1
# [10] = molecular target: Gal(b1-4)GlcNAc(b1-3)Gal(b1-4)GlcNAc(b1-3)Gal(b1-4)GlcNAc(b1-2)[Gal(b1-4)GlcNAc(b1-3)Gal(b1-4)GlcNAc(b1-3)Gal(b1-4)GlcNAc(b1-6)]Man(a1-6)[Gal(b1-4)GlcNAc(b1-3)Gal(b1-4)GlcNAc(b1-3)Gal(b1-4)GlcNAc(b1-2)Man(a1-3)]Man(b1-4)GlcNAc(b1-4)[Fuc(a1-6)]GlcNAc
# How it was run: as §1
# [11] = molecular target: Gal(b1-4)GlcNAc(b1-3)Gal(b1-4)GlcNAc(b1-3)Gal(b1-4)GlcNAc(b1-3)Gal(b1-4)GlcNAc(b1-2)Man(a1-3)[Gal(b1-4)GlcNAc(b1-3)Gal(b1-4)GlcNAc(b1-3)Gal(b1-4)GlcNAc(b1-3)Gal(b1-4)GlcNAc(b1-2)Man(a1-6)]Man(b1-4)GlcNAc(b1-4)GlcNAc
# How it was run: as §1
# [12] = molecular target: Gal(b1-4)GlcNAc(b1-3)Gal(b1-4)GlcNAc(b1-3)Gal(b1-4)GlcNAc(b1-3)Gal(b1-4)GlcNAc(b1-2)Man(a1-3)[Gal(b1-4)GlcNAc(b1-3)Gal(b1-4)GlcNAc(b1-3)Gal(b1-4)GlcNAc(b1-3)Gal(b1-4)GlcNAc(b1-2)Man(a1-6)]Man(b1-4)GlcNAc(b1-4)[Fuc(a1-6)]GlcNAc
# How it was run: as §1
# [13] = molecular target: Gal(b1-4)GlcNAc(b1-3)Gal(b1-4)GlcNAc(b1-3)Gal(b1-4)GlcNAc(b1-3)Gal(b1-4)GlcNAc(b1-2)[Gal(b1-4)GlcNAc(b1-3)Gal(b1-4)GlcNAc(b1-3)Gal(b1-4)GlcNAc(b1-3)Gal(b1-4)GlcNAc(b1-6)]Man(a1-6)[Gal(b1-4)GlcNAc(b1-3)Gal(b1-4)GlcNAc(b1-3)Gal(b1-4)GlcNAc(b1-3)Gal(b1-4)GlcNAc(b1-2)Man(a1-3)]Man(b1-4)GlcNAc(b1-4)[Fuc(a1-6)]GlcNAc
# How it was run: as §1
# [14] = molecular target: Gal(b1-4)GlcNAc(b1-3)Gal(b1-4)GlcNAc(b1-3)Gal(b1-4)GlcNAc(b1-3)Gal(b1-4)GlcNAc(b1-3)Gal(b1-4)GlcNAc(b1-2)Man(a1-3)[Gal(b1-4)GlcNAc(b1-3)Gal(b1-4)GlcNAc(b1-3)Gal(b1-4)GlcNAc(b1-3)Gal(b1-4)GlcNAc(b1-3)Gal(b1-4)GlcNAc(b1-2)Man(a1-6)]Man(b1-4)GlcNAc(b1-4)GlcNAc
# How it was run: as §1
# [15] = molecular target: Gal(b1-4)GlcNAc(b1-3)Gal(b1-4)GlcNAc(b1-3)Gal(b1-4)GlcNAc(b1-3)Gal(b1-4)GlcNAc(b1-3)Gal(b1-4)GlcNAc(b1-2)Man(a1-3)[Gal(b1-4)GlcNAc(b1-3)Gal(b1-4)GlcNAc(b1-3)Gal(b1-4)GlcNAc(b1-3)Gal(b1-4)GlcNAc(b1-3)Gal(b1-4)GlcNAc(b1-2)Man(a1-6)]Man(b1-4)GlcNAc(b1-4)[Fuc(a1-6)]GlcNAc
# How it was run: as §1
# [16] = molecular target: Gal(b1-4)GlcNAc(b1-3)Gal(b1-4)GlcNAc(b1-3)Gal(b1-4)GlcNAc(b1-3)Gal(b1-4)GlcNAc(b1-3)Gal(b1-4)GlcNAc(b1-2)[Gal(b1-4)GlcNAc(b1-3)Gal(b1-4)GlcNAc(b1-3)Gal(b1-4)GlcNAc(b1-3)Gal(b1-4)GlcNAc(b1-3)Gal(b1-4)GlcNAc(b1-6)]Man(a1-6)[Gal(b1-4)GlcNAc(b1-3)Gal(b1-4)GlcNAc(b1-3)Gal(b1-4)GlcNAc(b1-3)Gal(b1-4)GlcNAc(b1-3)Gal(b1-4)GlcNAc(b1-2)Man(a1-3)]Man(b1-4)GlcNAc(b1-4)[Fuc(a1-6)]GlcNAc
# How it was run: as §1
# [17] = molecular target: Gal(b1-4)GlcNAc(b1-3)Gal(b1-4)GlcNAc(b1-3)Gal(b1-4)GlcNAc(b1-3)Gal(b1-4)GlcNAc(b1-3)Gal(b1-4)GlcNAc(b1-3)Gal(b1-4)GlcNAc(b1-2)Man(a1-3)[Gal(b1-4)GlcNAc(b1-3)Gal(b1-4)GlcNAc(b1-3)Gal(b1-4)GlcNAc(b1-3)Gal(b1-4)GlcNAc(b1-3)Gal(b1-4)GlcNAc(b1-3)Gal(b1-4)GlcNAc(b1-2)Man(a1-6)]Man(b1-4)GlcNAc(b1-4)GlcNAc
# How it was run: as §1
# [18] = molecular target: Gal(b1-4)GlcNAc(b1-3)Gal(b1-4)GlcNAc(b1-3)GalNAc
# How it was run: as §1
# [19] = molecular target: Gal(b1-4)GlcNAc(b1-3)Gal(b1-4)GlcNAc(b1-3)[Gal(b1-4)GlcNAc(b1-3)Gal(b1-4)GlcNAc(b1-6)]GalNAc
# How it was run: as §1
binder,measurement,setting,value
B1,glycan array binding signal (z-score),[1],0.79
same,glycan array binding signal (z-score),[2],-0.417
same,glycan array binding signal (z-score),[3],0.588
same,glycan array binding signal (z-score),[4],-0.145
same,glycan array binding signal (z-score),[5],-0.302
same,glycan array binding signal (z-score),[6],-0.083
same,glycan array binding signal (z-score),[7],-0.433
same,glycan array binding signal (z-score),[8],0.249
same,glycan array binding signal (z-score),[9],-0.2
same,glycan array binding signal (z-score),[10],-0.11
same,glycan array binding signal (z-score),[11],-0.35
same,glycan array binding signal (z-score),[12],-0.247
same,glycan array binding signal (z-score),[13],-0.229
same,glycan array binding signal (z-score),[14],-0.24
same,glycan array binding signal (z-score),[15],-0.397
same,glycan array binding signal (z-score),[16],-0.254
same,glycan array binding signal (z-score),[17],-0.35
same,glycan array binding signal (z-score),[18],-0.296
same,glycan array binding signal (z-score),[19],-0.115
